{"source": "PubChem BioAssay AID504333", "about": "(National Center for Advancing Translational Sciences (NCATS), 2011)", "note": "Hit rate of the full screen: of about 360,000 compounds, about 16,000 (4.4%) were called active. The inconclusive results got no clear call from the source; some entries with a clear call stand among them for comparison. The call rests on the fitted dose curve; in most records, active means well fitted inhibition curve with a large enough effect; inconclusive means small, poorly fitted or top-dose-only effect; inactive means no such curve, though single readings can be large or run the other way. Potencies of inconclusive entries are doubtful fits and often do not repeat. Potency means the concentration at half of the fitted maximal effect; tags describe the fitted curve by direction and shape.", "data": [{"target": "Bromodomain adjacent to zinc finger domain protein 2B (Homo sapiens) (UniProt Q9UIF8)", "sequence (Q9UIF8 whole entry, looked up, the tested form may be a part)": "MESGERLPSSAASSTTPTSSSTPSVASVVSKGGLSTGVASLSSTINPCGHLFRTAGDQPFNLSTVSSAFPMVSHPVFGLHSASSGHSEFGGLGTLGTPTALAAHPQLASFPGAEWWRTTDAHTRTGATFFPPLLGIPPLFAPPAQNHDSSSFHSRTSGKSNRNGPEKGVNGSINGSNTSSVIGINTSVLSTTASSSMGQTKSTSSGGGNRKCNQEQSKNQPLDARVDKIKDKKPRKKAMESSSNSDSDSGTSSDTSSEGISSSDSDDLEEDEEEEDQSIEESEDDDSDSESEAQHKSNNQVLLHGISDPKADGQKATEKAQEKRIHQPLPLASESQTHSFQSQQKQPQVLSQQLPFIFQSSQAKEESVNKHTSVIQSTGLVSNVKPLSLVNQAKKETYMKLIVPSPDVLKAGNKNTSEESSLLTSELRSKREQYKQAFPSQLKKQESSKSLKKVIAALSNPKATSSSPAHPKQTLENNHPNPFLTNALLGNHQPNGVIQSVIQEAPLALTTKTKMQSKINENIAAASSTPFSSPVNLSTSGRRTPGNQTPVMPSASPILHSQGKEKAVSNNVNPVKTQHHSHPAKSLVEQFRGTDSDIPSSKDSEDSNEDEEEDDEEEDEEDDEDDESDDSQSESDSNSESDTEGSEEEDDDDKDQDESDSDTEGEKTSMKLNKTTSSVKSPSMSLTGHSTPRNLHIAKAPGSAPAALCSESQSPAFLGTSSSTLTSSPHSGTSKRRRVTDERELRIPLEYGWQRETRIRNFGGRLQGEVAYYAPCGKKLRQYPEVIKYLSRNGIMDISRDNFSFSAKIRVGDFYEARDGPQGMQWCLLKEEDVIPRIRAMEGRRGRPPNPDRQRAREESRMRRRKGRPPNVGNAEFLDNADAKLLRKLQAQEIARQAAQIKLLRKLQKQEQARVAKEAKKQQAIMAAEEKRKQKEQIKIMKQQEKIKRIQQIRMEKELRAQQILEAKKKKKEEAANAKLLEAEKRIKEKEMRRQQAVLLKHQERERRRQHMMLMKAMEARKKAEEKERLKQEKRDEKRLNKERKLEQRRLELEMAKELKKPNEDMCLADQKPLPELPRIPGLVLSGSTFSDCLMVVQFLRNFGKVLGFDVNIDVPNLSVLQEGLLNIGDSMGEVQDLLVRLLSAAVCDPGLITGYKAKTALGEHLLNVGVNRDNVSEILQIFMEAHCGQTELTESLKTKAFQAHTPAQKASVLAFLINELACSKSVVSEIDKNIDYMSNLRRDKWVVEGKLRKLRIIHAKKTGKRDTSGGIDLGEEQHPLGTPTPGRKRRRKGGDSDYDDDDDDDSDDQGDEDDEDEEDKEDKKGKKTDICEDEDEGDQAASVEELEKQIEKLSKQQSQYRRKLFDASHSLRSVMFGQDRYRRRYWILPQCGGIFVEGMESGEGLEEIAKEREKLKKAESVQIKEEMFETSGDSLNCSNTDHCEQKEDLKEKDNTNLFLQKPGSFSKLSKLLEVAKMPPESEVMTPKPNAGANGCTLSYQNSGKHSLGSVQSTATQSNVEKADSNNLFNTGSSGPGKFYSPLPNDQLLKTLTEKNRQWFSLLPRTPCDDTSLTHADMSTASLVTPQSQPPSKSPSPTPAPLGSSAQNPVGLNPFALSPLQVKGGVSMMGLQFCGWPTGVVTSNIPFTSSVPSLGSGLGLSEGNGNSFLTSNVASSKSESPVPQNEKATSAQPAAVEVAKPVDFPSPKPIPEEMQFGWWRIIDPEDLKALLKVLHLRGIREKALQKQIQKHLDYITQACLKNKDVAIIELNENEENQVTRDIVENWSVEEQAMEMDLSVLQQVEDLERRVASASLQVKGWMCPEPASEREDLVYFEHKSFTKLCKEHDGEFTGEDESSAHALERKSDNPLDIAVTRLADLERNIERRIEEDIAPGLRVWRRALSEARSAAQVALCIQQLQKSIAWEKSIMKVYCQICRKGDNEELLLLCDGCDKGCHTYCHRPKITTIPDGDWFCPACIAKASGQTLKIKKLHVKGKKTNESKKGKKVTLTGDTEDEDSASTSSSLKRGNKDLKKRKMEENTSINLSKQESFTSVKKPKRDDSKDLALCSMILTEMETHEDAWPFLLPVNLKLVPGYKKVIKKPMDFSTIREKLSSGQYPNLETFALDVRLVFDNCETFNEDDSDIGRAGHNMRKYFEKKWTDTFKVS", "test": "qHTS Assay for Inhibitors of BAZ2B; further: nearly all actives have a fitted effect of over 60% in size", "details": "AlphaScreen BAZ2B-H3K14Ac peptide displacement; series mostly up to 114 µM", "outline": "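BAZ2B 50 nM plus b-H3(5-23)K14Ac 50 nM, PBS pH 7.4/0.01% Tween-20, 30 min RT; compound added (max 110 uM), 30 min RT; streptavidin donor/Ni-chelate acceptor beads 10 ug/mL final, 20 min dark; AlphaScreen read.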", "values": [{"smiles": "COc1ccccc1N1CCN(c2nc(N)c(C#N)c(CC#N)c2C#N)CC1", "Potency": "inactive"}, {"smiles": "COc1ccc(C(=O)/C=C/c2cn(CC(O)CN3CCCCCC3)c3ccccc23)cc1OC", "note": "(configuration not stated)", "Potency": "active: 28.2 µM"}, {"smiles": "Cc1ccc(-n2cccc2/C=C2/C(=N)N3C(=NC2=O)SN=C3S(C)(=O)=O)cc1Cl", "Potency": "active: 44.7 µM"}, {"smiles": "COc1ccc(/C=N/N=C2/NC(=O)C(CC(=O)O)S2)cc1OCc1ccc(Cl)cc1Cl", "note": "(configuration not stated)", "Potency": "active: 50.1 µM"}, {"smiles": "Cc1ccccc1-n1nc2c(c1NC(=O)C(C)(C)C)CS(=O)(=O)C2", "Potency": "inactive"}, {"smiles": "COc1cccc(N/N=C/c2cccc(Br)c2O)c1", "Potency": "inconclusive: 79.4 µM [inhibitor, single point]"}, {"smiles": "CCCCc1ccc(C(=O)c2c(N)c(C(=O)Nc3cccc(OC)c3)c3ccccn23)cc1", "Potency": "inactive"}, {"smiles": "CCOc1cccc(OCCCCn2ccnc2)c1", "Potency": "active: 50.1 µM"}, {"smiles": "Cc1nnc(N2C(=O)c3oc4ccccc4c(=O)c3C2c2cccc(OCCC(C)C)c2)s1", "note": "(configuration not stated)", "Potency": "inconclusive: 89.1 µM [inhibitor, single point]"}, {"smiles": "C#CCOCCOCCOCCNc1nc(N2CCN(C(=O)CCCCCCCCCCNC(=O)[C@@H](CCC(=O)O)n3cc(CCCCCN)nn3)CC2)nc(N2CCN(C(=O)CCCCCCCCCCNC(=O)[C@@H](CCC(=O)O)n3cc(CCCCCN)nn3)CC2)n1", "Potency": "inconclusive: 70.8 µM [inhibitor, single point]"}, {"smiles": "COC(=O)CC1(c2cccc3ccccc23)C(=O)c2ccccc2C1=O", "Potency": "inconclusive: 31.6 µM [inhibitor, full curve]"}, {"smiles": "CCN1/C(=C\\c2ccc3ccccc3[n+]2CC)Sc2cc(C)ccc21", "Potency": "active: 50.1 µM"}, {"smiles": "CCOC(=O)/C(=N\\Nc1ccccc1Cl)N1CC(C)OC(C)C1", "note": "(configuration not stated)", "Potency": "inconclusive: 0.708 µM [inhibitor, full curve, poor fit]"}, {"smiles": "Cc1ccc2c(c1)-c1c(ssc1=S)C(C)(C)N2C(=O)CSC1=NCCS1", "Potency": "active: 8.91 µM"}, {"smiles": "O=C(COc1ccc2oc3c(c2c1)CCCC3)Nc1cccc(Br)c1", "Potency": "inconclusive: 11.2 µM [inhibitor, full curve]"}, {"smiles": "CCn1c(SCC#N)nc2ccccc2c1=O", "Potency": "inconclusive: 70.8 µM [inhibitor, partial curve, poor fit]"}, {"smiles": "CCOC(=O)C1=C(C)N=C2SC(C(=O)OC)=CC(=O)N2C1c1ccc(F)cc1", "note": "(configuration not stated)", "Potency": "inconclusive: 56.2 µM [inhibitor, single point]"}, {"smiles": "CCCn1c(NCc2cc(OC)ccc2OC)nc2ccccc21", "Potency": "inconclusive: 44.7 µM [inhibitor, partial curve]"}, {"smiles": "COc1ccc(NC(=O)CCS(=O)(=O)c2cc3c4c(c2)CCN4C(=O)CC3)c(OC)c1", "Potency": "inactive"}, {"smiles": "Cc1cc(Cl)ccc1Oc1ncnc2oc(-c3ccccc3)cc12", "Potency": "active: 79.4 µM"}, {"smiles": "CN(C)c1ccc(/C=C/C(=O)c2ccc3c(c2)OCCO3)cc1[N+](=O)[O-]", "Potency": "inconclusive: 8.91 µM [inhibitor, full curve]"}, {"smiles": "Cc1nc2c(ccc3c2ccc2nc(C)sc23)s1", "Potency": "inconclusive: 89.1 µM [inhibitor, single point]"}, {"smiles": "Oc1ccc2ccccc2c1/C=N/c1nccs1", "Potency": "inconclusive: 100 µM [inhibitor, single point]"}, {"smiles": "CCOC(=O)Cc1csc(NC(=S)NC(=O)c2cc(OC)c(OC)c(OC)c2)n1", "Potency": "inconclusive: 79.4 µM [inhibitor, single point]"}, {"smiles": "C=CCn1c(SCc2cc(=O)n3ccsc3n2)nnc1C1CCCCC1", "Potency": "inactive"}, {"smiles": "O=C(c1ccc(S(=O)(=O)Cc2ccccc2F)c([N+](=O)[O-])c1)N1CCCCCC1", "Potency": "inactive"}, {"smiles": "Cc1cc(C)c2c(c1)NC(c1cc3c(cc1Br)OCO3)C1CC=CC21", "note": "(configuration not stated)", "Potency": "inconclusive: 31.6 µM [inhibitor, full curve]"}, {"smiles": "COc1ccc(OC)c(Nc2c3ccccc3nc3ccccc23)c1", "Potency": "active: 50.1 µM"}, {"smiles": "COc1ccc(OC)c(-n2cc3c(=O)n(C)c(=O)n(C)c3c2)c1", "Potency": "inconclusive: 50.1 µM [inhibitor, partial curve]"}, {"smiles": "Cc1oc2c(c1C(=O)Nc1ccc(OC(F)(F)F)cc1)C1=NCCN1C=N2", "Potency": "inactive"}, {"smiles": "C=CCN(c1ccccc1)S(=O)(=O)c1cccc(C(=O)Nc2ccc(N3CCOCC3)cc2)c1", "Potency": "inconclusive: 35.5 µM [inhibitor, full curve, poor fit]"}, {"smiles": "Cc1ccccc1Cn1c(CN2CCc3ccccc3C2)nc2c1c(=O)n(C)c(=O)n2C", "Potency": "inactive"}, {"smiles": "O=C(O)Cc1sc(Nc2ccc(Cl)cc2)nc1-c1cccs1", "Potency": "inconclusive: 56.2 µM [inhibitor, partial curve, poor fit]"}, {"smiles": "COC(=O)C1=C(C)N(CCc2ccc(OC)c(OC)c2)C(=O)/C1=C\\c1ccc(O)cc1", "Potency": "inconclusive: 70.8 µM [inhibitor, single point]"}, {"smiles": "COc1ccc(C2CC(c3ccc(F)cc3)=NN2c2ccccc2)cc1OC", "note": "(configuration not stated)", "Potency": "inactive"}, {"smiles": "CCc1ccc(Nc2c([N+](=O)[O-])c(=O)oc3ccccc23)cc1", "Potency": "inconclusive: 70.8 µM [inhibitor, single point]"}, {"smiles": "Cn1cc(S(=O)(=O)N2CCOCC2)cc1C(=O)Nc1cccc(Cl)c1", "Potency": "inconclusive: 44.7 µM [inhibitor, partial curve]"}, {"smiles": "COc1ccc(CSc2cccc3cccnc23)cc1[N+](=O)[O-]", "Potency": "inconclusive: 89.1 µM [inhibitor, single point]"}, {"smiles": "COc1ccc(CNC(=O)c2n[nH]c3ccccc23)cc1OC", "Potency": "inactive"}, {"smiles": "CS(=O)(=O)NN1C(=O)c2ccccc2NC1c1ccccc1", "note": "(configuration not stated)", "Potency": "inactive"}, {"smiles": "CCCNC(=O)c1csc(Nc2cccc3ccccc23)n1", "Potency": "inconclusive: 89.1 µM [inhibitor, single point]"}, {"smiles": "Cc1ccc(NC(=O)c2cc(N(C)C)ccc2[P+](=O)O)cc1", "Potency": "inconclusive: 89.1 µM [inhibitor, single point]"}, {"smiles": "Cn1c(=O)c2c(nc(Sc3n[nH]c(N)n3)n2Cc2ccccc2Cl)n(C)c1=O", "Potency": "inconclusive: 4.47 µM [inhibitor, full curve, poor fit]"}, {"smiles": "Cc1cc2oc(C(=O)Nc3ccc(S(=O)(=O)Nc4nccs4)cc3)cc(=O)c2cc1Cl", "Potency": "inconclusive: 50.1 µM [inhibitor, partial curve]"}, {"smiles": "O=C(CSc1cccc[n+]1[O-])Nc1ccc([N+](=O)[O-])cc1Cl", "Potency": "inactive"}, {"smiles": "O=[N+]([O-])c1nn(-c2ccc(Cl)cc2)n(O)c1=NCc1cccnc1", "Potency": "inconclusive: 44.7 µM [inhibitor, partial curve]"}, {"smiles": "c1ccc(C2c3[nH]c4ccccc4c3CCN2Cc2cccn2-c2cccnc2)nc1", "note": "(configuration not stated)", "Potency": "active: 31.6 µM"}, {"smiles": "CCC1=NN2C(=N)/C(=C\\c3cccn3-c3cccc(Cl)c3)C(=O)N=C2S1", "Potency": "inconclusive: 28.2 µM [inhibitor, full curve, poor fit]"}, {"smiles": "O=C(CCNS(=O)(=O)c1ccc(Br)cc1)NC1CCC(O)CC1", "note": "(configuration not stated)", "Potency": "inactive"}, {"smiles": "Cc1sc(C2C(C#N)=C(N)N(c3ccc(Cl)cc3)C3=C2C(=O)CCC3)cc1CN1CCOCC1", "note": "(configuration not stated)", "Potency": "inconclusive: 79.4 µM [inhibitor, single point]"}, {"smiles": "Cc1ccc(NC2(c3ccccc3)C(=O)c3ccccc3C2=O)cc1F", "Potency": "inconclusive: 22.4 µM [inhibitor, full curve]"}, {"smiles": "COc1ccc(C=O)cc1OC(=O)N1CCOCC1", "Potency": "inactive"}, {"smiles": "COc1cccc(C2C(C(=O)c3ccc(C)o3)=C(O)C(=O)N2c2cc(C)on2)c1", "note": "(configuration not stated)", "Potency": "inconclusive: 89.1 µM [inhibitor, partial curve]"}, {"smiles": "Cc1onc(-c2ccccc2)c1CNS(=O)(=O)c1ccc(F)cc1F", "Potency": "inactive"}, {"smiles": "Cc1ccc(CNc2nc(-c3ccco3)nn2C(=O)c2ccccc2[N+](=O)[O-])cc1", "Potency": "active: 8.91 µM"}, {"smiles": "Cc1ccc(CSc2nnc(-c3ccncc3)n2C)cc1", "Potency": "inconclusive: 39.8 µM [inhibitor, single point]"}, {"smiles": "COc1ccc(OC)c(CNC(=O)Cc2c(C(=O)O)[nH]c3ccc(Cl)cc23)c1", "Potency": "inconclusive: 79.4 µM [inhibitor, partial curve]"}, {"smiles": "S=c1[nH]nc(-c2ccco2)n1/N=C/C(Cl)=C/c1ccccc1", "Potency": "inconclusive: 31.6 µM [inhibitor, full curve]"}, {"smiles": "COc1ccc(/C=C2/SC(=O)N(NS(=O)(=O)c3ccccc3)C2=S)cc1OC", "Potency": "inconclusive: 79.4 µM [inhibitor, single point]"}, {"smiles": "CO/N=C/C1C(=O)NN=C1c1ccccc1", "note": "(configuration not stated)", "Potency": "inconclusive: 79.4 µM [inhibitor, single point]"}, {"smiles": "CC(=O)/C(CN1CCCCC1)=N\\O", "Potency": "inactive"}, {"smiles": "COC(=O)/C=C1\\S/C(=N/NC(=O)c2ccccc2)NC1=O", "Potency": "inconclusive: 89.1 µM [inhibitor, single point]"}, {"smiles": "CCOC(=O)c1scc(-c2ccccc2)c1S(=O)(=O)Nc1ccccc1OC", "Potency": "inconclusive: 89.1 µM [inhibitor, single point]"}, {"smiles": "O=C(CSc1nn(-c2ccccc2)c(=S)s1)Nc1ncccn1", "Potency": "inactive"}, {"smiles": "N#Cc1nc(-c2ccc(COc3ccc(Cl)cc3)o2)oc1N1CCCCC1", "Potency": "inconclusive: 8.91 µM [inhibitor, full curve]"}, {"smiles": "CSc1ccc(CN2CCN(C(=O)c3ccc([N+](=O)[O-])cc3)CC2)cc1", "Potency": "active: 50.1 µM"}, {"smiles": "COc1ccc(CNCc2c(C(=O)O)c(C)n(Cc3ccccc3C)c2C)cc1OC", "Potency": "inactive"}, {"smiles": "CC(C)CC(NC(=O)COc1ccccc1)C(=O)O", "note": "(configuration not stated)", "Potency": "inactive"}, {"smiles": "COc1ccc(S(=O)(=O)N2CCN(Cc3ccccc3)CC2)cc1", "Potency": "inactive"}, {"smiles": "CCOc1ccc(OCCC(=O)OCC(=O)N2CCN(S(=O)(=O)c3ccc(Cl)cc3)CC2)cc1", "Potency": "active: 50.1 µM"}, {"smiles": "CC(C)=NOc1cc(NC(=O)CCl)cc([N+](=O)[O-])c1", "Potency": "inactive"}, {"smiles": "COc1ccc(CN2CCCC(N3CCN(c4cccc(Cl)c4)CC3)C2)cc1OC", "note": "(configuration not stated)", "Potency": "inconclusive: 50.1 µM [inhibitor, partial curve]"}]}]}
